Measured values: the supplement of paper PMC11417369
This is one part of the list.

test system: PfAP2-HC AP2 domain (GST-tagged); assay: gcPBM binding intensity (ln(normalized median fluorescence intensity)); higher = stronger DNA binding
Procedure, shortened: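 In this array assay, P. falciparum DNA-binding domains with a GST tag, expressed in E. coli, were applied for 1 h to primer-extended double-stranded 36-bp intergenic genomic probes and negative controls on an Agilent 4 × 180k array. Bound protein was visualised with Alexa488 anti-GST antibody at 488 nm. Binding intensity is the highest Masliner-normalised natural-log median intensity across replicate spots of either probe orientation.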

| Sequence | gcPBM binding intensity (ln) |
| --- | --- |
| ATTTTTTTACTGCAACCATATTTTTCCCTTTTATTC [CACACA_negctrl_site1282] | 9.65 |
| TGTATATATATATAAAGTACATATAATATATATTTG [XGTACX_site5411] | 9.59 |
| AAATAAAATTATAACTGTACGTTGTATGAAATAATG [XGTACX_site5462] | 9.74 |
| GTGTACATAGGTATAGCACACACAAATGTAGGTATT [CACACA_site9339] | 10 |
| TCTATAAAGTTCCATACATGCGCCATCATTTATATT [TGCATGCA_site195] | 10.3 |
| GAATACACCACGCACACACACTTGAGAAAAAATAAA [CACACA_site7747] | 10.3 |
| ATTATAATTATTTTGTTGCACTATTTTTGTAGGCCA [GTGCAC_site9734] | 9.5 |
| TAGTTATTTATATACACACACATACAGACAAATAAA [CACACA_site7577] | 10.8 |
| TCTTAGATTATTTATTGTACTTATGCTTAAAAAATT [XGTACX_site3639] | 9.56 |
| GTCCAATAAGGAAGAGTGCAAAAATTAAATAATATA [GTGCAC_site9751] | 9.61 |
| AAAGAAAAAAAAAACACACACACACGCATTCAATAT [CACACA_site6169] | 10.7 |
| ATATATATTTATATATATATATATATATATATGTAT [GTGCAC_negctrl_site220] | 9.49 |
| GAAAAAAAAGAAAAAACACACATATGATATATTTAT [CACACA_site1524] | 9.64 |
| ATATTTTCTTTTTAAAGTACATATTTGATTACAATA [XGTACX_site8414] | 9.22 |
| ATATATATATATATATGTACATATTTTTAATTATAA [XGTACX_site7444] | 9.73 |
| ATAGAATAATATTGTAGTACTAAAAATATTCATTTT [XGTACX_site6447] | 9.59 |
| TCTATATATAAATATAAATATATATATATAATGTTA [TGCATGCA_negctrl_site92] | 9.36 |
| TAAAAAACAAAACAGGTGCTATATAATTTTCATTTT | 9.68 |
| ATTATAAATTAAAATACACACATATATACATAATAT [CACACA_site7337] | 9.91 |
| TCTTTTTGTTCGTGTACACACATGAAATTTATAAAA [CACACA_site1619] | 9.78 |
| AAGTATATACATATATGTACACATTGTCAGATAGAA [XGTACX_site1236] | 9.79 |
| TTGTTTCTTAAATTATTTATTTTATATTAAAAAAAA [XGTACX_negctrl_site224] | 9.27 |
| AAGAAAATGAAAAAGTAAAAACATATATTAAATATA [TGCATGCA_negctrl_site123] | 9.54 |

| Sequence | gcPBM binding intensity (ln) |
| --- | --- |
| ATTCGTAGTTTTATGAATTAATATAATAAAAATTAA [XGTACX_negctrl_site181] | 9.51 |
| TCGTAGTTACTATGGCAAGAAAATAAACGGTCTTGT [GTGCAC_negctrl_site684] | 9.73 |
| TTAAATAAAAAAATAACACACATATAAATATATATG [CACACA_site3175] | 9.7 |
| TTACATATTTTTTAACGTACATAAATATATATGTAT [XGTACX_site8406] | 9.63 |
| TTGTAAAAATTAATACATATATATATATATATATAT [CACACA_negctrl_site6] | 9.65 |
| ACTCAAACCTTTAGAGTGCAAAAAAAAAAAAAAAAA [GTGCAC_site9952] | 8.9 |
| AAAGAAATAAGGTGCACACATATACAGATATATATA [CACACA_site4399] | 10.3 |
| ATATATTTGATTTACACACTTACAATGTATATAAAT [CACACA_site2993] | 9.71 |
| CTCTTTTTTTGCAAAAGTACAAATGGGGATATATTT [XGTACX_site5813] | 9.57 |
| GCATTATTTACCACAACACACAAATATTTACCAATC [CACACA_site2669] | 10.1 |
| ACTATATATTTAATATGTACACATATTTCTGTCGAT [XGTACX_site6878] | 9.94 |
| TTCCTAAGAATAATCAGTACACATAAAAAGAACATA [XGTACX_site7861] | 9.61 |
| ATAATTATCATAGGATGTACATATTTATTTTGTATA [XGTACX_site7797] | 9.7 |
| ATATGTTAAATTATTCGTACGTAAAAAAAAATGGAT [XGTACX_site3465] | 9.68 |
| AAAAAGGGTATTATTACACACACGTAAATATTAATA [CACACA_site101] | 10.1 |
| AGATTTATACAAATATGTACACACTAAATATATATT [XGTACX_site864] | 9.85 |
| ATATAGTATTAATTTGCATGTCATGTATTAGGTCGA [TGCATGCA_site540] | 9.66 |
| TATTCATTTATAAGCTGTACACATTAATTTGAGCTA [XGTACX_site3616] | 9.48 |
| ATTAGGATATATTAAAGTACTAATATAATACATTTT [XGTACX_site7386] | 9.55 |
| CTTTTTTTAATATGCACACATATATTTTATATATTA [CACACA_site2077] | 9.95 |
| TTTTATATTTTTTGTGGTACATTTAGAGAACCAAAA [XGTACX_site1695] | 9.29 |
| TGTAAGTTGATATAATGTACATGTTTGATTTTTTTT [XGTACX_site7687] | 9.64 |
| TTTATAAACAAATGAACACACAAACATATATATATA [CACACA_site5713] | 10.2 |

| Sequence | gcPBM binding intensity (ln) |
| --- | --- |
| TTTATTTTATCATTTGCACACGCACCCAGACATAAA [CACACA_site4347] | 9.9 |
| CTATTATAATATTTTACACACCATGTAAGATATATA [CACACA_site7492] | 9.55 |
| TTTTTTCATTAGAAAACATGCAAATGTTTTTCACTT [TGCATGCA_site127] | 9.57 |
| TAACTAAGGAATAATACACACAGAAATATAGATTTA [CACACA_site6293] | 9.89 |
| TCTATTTTCTTATGAATGCACTAATTTATAAAACGT | 9.55 |
| CAACAAAAATTATTTACACACAAAAGGCAAGGAAAT [CACACA_site1971] | 9.94 |
| ATTTTAGATGAAAAAGCACACAACATATATATATAT [CACACA_site2295] | 10.1 |
| ATTCTTTTTTTTTGGAAATGTATTTTTATGTTTTGT [TGCATGCA_negctrl_site426] | 9.66 |
| TTGCCCATTTCATTAACACACAAATGTTTATATTCT [CACACA_site4569] | 10.1 |
| TTAACTCAAGAGTGTACACATATATATATATATATA [CACACA_site4334] | 9.83 |
| AATACCCATTTTAGTACACACTTAAAAAATTATTTT [CACACA_site5611] | 9.6 |
| ACGTTGAAGAAATACACATGCATATTCTATATATAT [TGCATGCA_site76] | 9.7 |
| TATATTTTTTAAAAAGCATGCAAAAAATAATGATCA [TGCATGCA_site48] | 9.45 |
| GTATAATATGAACACACACACACACGCAAAAAAAAA [CACACA_site7036] | 10.5 |
| TAATATATATAAACATGTACAAATCAAAAACAAAAG [XGTACX_site4076] | 10.2 |
| CTCTTATGCTAGGAAGTGCAATAGTATGGGTACCAC | 9.41 |
| TCATTTTATTTTTTCACACACACATATATATATATA [CACACA_site3333] | 10.2 |
| ATTTATTTTTATATAACACACAAAGTATAATATAAC [CACACA_site3582] | 9.62 |
| ATATATATATCGATCTGTACATATATTTATAGACAT [XGTACX_site4236] | 9.77 |
| ATATATTTATATTTATGTACATATCTTTATTTACGT [XGTACX_site6800] | 9.92 |
| TGTAAAACTGAAAAGGGTACATATAAATATATATAT [XGTACX_site69] | 9.57 |
| AAAGAAATACAATGATGTACATTTAAAAAAAATTAA [XGTACX_site4324] | 9.69 |
| ACAAGAAAATATATTTGTACATATATAATTTTATTT [XGTACX_site548] | 9.64 |

| Sequence | gcPBM binding intensity (ln) |
| --- | --- |
| ATTAGTAAGAATCATTGTACATTATAATATGTGGTA [XGTACX_site1341] | 9.61 |
| TTTTTAAAAAAGTAAAGTACAAAAAAAAGGAATATC [XGTACX_site588] | 10 |
| TGCTTCCTTAGGAATGTACACACATATATAATATGT [CACACA_site8048] | 10.2 |
| CTAAAATACAGACACACACACACATATATATATATA [CACACA_site4150] | 11 |
| ATATGCTTATATTATATATATAAGTCTATATATTTT [XGTACX_negctrl_site349] | 9.68 |
| TTAAAATAGGGCGAAGAAATTTTCTGTAAACATTTG [CACACA_negctrl_site1010] | 9.46 |
| GGGTTTTTAAAATGTAGTACATATGTAAACATCAAA [XGTACX_site1262] | 9.57 |
| ATATATATAAAATGTTGTACATATATATAAATAATA [XGTACX_site1661] | 9.57 |
| AGGTTTTCTTAAATAGTGCATTATAACAAAAATAAA | 9.4 |
| TCACGTATGTATATTACACACATACATATTATTCAC [CACACA_site4276] | 9.88 |
| CATAAATAAGCTTTAGTGCATTATATTTAAATTTTT | 9.55 |
| AACATCTCATATCGTACTACACTCATATATATATAT [XGTACX_site170] | 9.92 |
| ATAAAATGAACCTTTTGTACATATATATATATATAT [XGTACX_site4610] | 9.75 |
| ATATTATATATATATAAACACACAAATATTTTTATA [CACACA_site8486] | 9.71 |
| TGAATATTTCTATATACACACATATATATATATATA [CACACA_site3451] | 9.74 |
| TTTAATAATAATAAAAGTACACAAATATAAAGGAAA [XGTACX_site5203] | 9.77 |
| TAAAGTAAAGACATACTTATTTTCCATCCACTTCTT [CACACA_negctrl_site1288] | 9.72 |
| AAACAATAAAAGATTACACACATATATAGCATCTAT [CACACA_site5012] | 9.97 |
| TTTCATTTGTCGTTATGTACTTATTAAATATTATTA [XGTACX_site7709] | 9.72 |
| TCTGTATATTTCGCGCGTACGAACAAATTGATAATT [XGTACX_site7965] | 9.75 |
